# Laboratory results published in publication PMC6919601, “Identification of Plasmodium dipeptidyl aminopeptidase allosteric inhibitors by high throughput screening” (PLoS ONE, 2019).
# The whole screen tested about 110,000 compounds, of which about 230 (0.21%) showed an effect of 50% or more. Some of the results follow.
# Biological target: DPAP1 (Plasmodium falciparum, UniProt Q8IIJ9)
# Assay: primary screen, percent inhibition; read by cleavage of a fluorogenic dipeptide substrate; higher = more effect of the substance
# Parameters: species or system P. falciparum D10 trophozoite lysates; single well
# Procedure: HTS was performed in black 384-well plates. The first and last two columns of each plate contained our negative (DMSO) and positive (10 μM JCP410) controls, and the 20 central columns the test compounds at 10 μM. Compounds were first diluted 50-fold into assay buffer (50 mM sodium acetate, 5 mM MgCl2, 10 mM β-mercaptoethanol, and 0.1% CHAPS, pH 5.5) from a 10 mM DMSO stock plates. One microliter of this 200 μM intermediate stock plate was dispensed into the assay plate. […] After 30 min, the reaction was quenched with 20 μL of 0.5 M acetic acid, and the fluorescent intensity measured at 523 nm (λex = 492 nm) using an Analyst HT multimode plate reader (Molecular Devices).
# 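Note: 30 min substrate incubation versus DMSO and 10 µM JCP410 controls.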
# Sequence of DPAP1 (Q8IIJ9 whole entry, looked up): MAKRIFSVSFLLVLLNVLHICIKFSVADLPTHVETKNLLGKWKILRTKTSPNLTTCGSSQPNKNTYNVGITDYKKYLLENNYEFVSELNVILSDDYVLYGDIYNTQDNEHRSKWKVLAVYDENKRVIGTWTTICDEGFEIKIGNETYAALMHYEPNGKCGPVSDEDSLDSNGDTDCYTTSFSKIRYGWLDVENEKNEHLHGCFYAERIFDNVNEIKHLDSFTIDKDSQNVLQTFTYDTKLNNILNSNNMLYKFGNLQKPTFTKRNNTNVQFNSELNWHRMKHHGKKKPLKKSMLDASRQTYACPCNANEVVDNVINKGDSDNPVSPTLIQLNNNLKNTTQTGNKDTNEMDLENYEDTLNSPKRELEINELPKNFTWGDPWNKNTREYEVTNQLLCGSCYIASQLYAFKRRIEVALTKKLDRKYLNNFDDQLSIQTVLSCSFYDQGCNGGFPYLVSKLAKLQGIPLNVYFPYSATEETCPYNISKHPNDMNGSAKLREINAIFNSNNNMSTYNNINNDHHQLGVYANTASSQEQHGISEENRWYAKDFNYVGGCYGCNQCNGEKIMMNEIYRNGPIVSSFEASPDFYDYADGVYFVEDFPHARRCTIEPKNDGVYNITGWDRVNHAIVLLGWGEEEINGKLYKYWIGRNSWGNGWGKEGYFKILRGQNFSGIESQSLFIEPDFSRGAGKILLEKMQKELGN
row,SMILES,% Inhibition @ 10 uM
1,COc1ccc(NC(=O)C2=C(C)NC(=O)NC2c2cccc(Cl)c2)cc1 (stereo not drawn),0.147%
2,CCOC(=O)N1CCN(C(=O)COCc2cc(-c3ccc(F)cc3)on2)CC1,-2.17%
3,OC1CCCN(Cc2ccc3ccccc3c2)C1 (stereo not drawn),-4.5%
4,Cn1c(=O)c2c(nc(NCC(=O)O)n2Cc2ccccc2)n(C)c1=O,-1.36%
5,Cc1ccc(C2C3=C(O)c4ccccc4C3=Nc3c2c(=O)[nH]c(=O)n3C)cc1 (stereo not drawn),-4.76%
6,COc1cc(C(=O)NC(C)(C)CO)cc(OC)c1OC,0.843%
7,COc1cc2c(cc1OC)C(C)N(C(=O)c1nn(C)c3c1CSc1ccccc1-3)CC2 (stereo not drawn),22.5%
8,COc1cc(CNC2CN3CCC2CC3)ccc1OCc1ccc(Cl)nc1 (stereo not drawn),-6.74%
9,CC(NC(=O)COc1ccc([N+](=O)[O-])cc1)c1ccccc1 (stereo not drawn),14.9%
10,O=C(Cn1c(C(F)(F)F)nc2ccccc21)NCCCN1CCOCC1,-5.92%
11,Cc1c(C(=O)NCCCN2CCCC2=O)oc2ccc3c(c12)C(O)CC(C)(C)O3 (stereo not drawn),-6.7%
12,CC(c1ccccc1)n1c(O)nc2ccccc21 (stereo not drawn),-0.403%
13,CCc1cccc(-n2nnc(-c3nc(-c4ccccn4)no3)c2N)c1,2.19%
14,Cc1[nH]c2ccccc2c1SCCNC(=O)C(C)Oc1ccccc1 (stereo not drawn),-1.73%
15,COc1ccc(-c2ccc(=O)n(Cc3cc(=O)n4ccccc4n3)n2)cc1,-6.4%
16,CCOc1ccc(-c2nc(CSCC(=O)NCCN3CCOCC3)c(C)o2)cc1,3.93%
17,COc1ccc(CNC(=O)CN(C)S(=O)(=O)c2ccccc2)cc1,2.76%
18,Cc1ccc(C)n1-c1cc(Cl)ccc1C(=O)O,-2.26%
19,Cc1ccc(CNC(=O)CSc2nc3ccsc3c(=O)n2CC2CCC(C(=O)O)CC2)cc1 (stereo not drawn),-3.46%
20,O=C(c1cccnc1)N1CCN(CCN2C(=O)C3C4C=CC(C4)C3C2=O)CC1 (stereo not drawn),0.385%
21,CC(C)Oc1ccc(C(=O)Nc2ccc(N3CCN(C(=O)c4ccco4)CC3)cc2)cc1,3.49%
22,CC[C@@H](C)[C@H](NC(=O)c1cccc2ccccc12)C(=O)N[C@@H](CCc1ccccc1)C(=O)COCc1ccccc1,-12.9%
23,Cc1ccc(NC(=O)CN(c2ccc(C(C)C)cc2)S(C)(=O)=O)c(C)c1,0.528%
24,O=C(Nc1ccccc1)NC1CCCCC1NC(=O)Nc1ccccc1 (stereo not drawn),0.145%
25,COc1ccccc1OCCCn1ccnc1,-8.01%

row,SMILES,% Inhibition @ 10 uM
1,CCc1nc2cccnc2n1-c1ccc(CC(=O)N2CCc3ccccc3C2)cc1,2.98%
2,Cc1cccc(Cn2c(C)c(CNCc3ccc(F)cc3)c(C(=O)O)c2C)c1,4.53%
3,COc1cc2c(cc1OC)C(C#N)N(C(=O)c1ccccc1)CC2 (stereo not drawn),-2.85%
4,CC1CCCN(C(=O)c2ccc3c(c2)C(=O)N(CCC2=CCCCC2)C3=O)C1 (stereo not drawn),8.97%
5,COc1ccc(-c2c(NCCC3=CCCCC3)c(=O)c2=O)cc1,0.309%
6,COc1ccc(OC)c(S(=O)(=O)NCc2nc3nc(C)cc(C)n3n2)c1,-0.447%
7,CCOC(=O)c1c(C)n(Cc2ccccc2)c2ccc(OCC(O)Cn3nc(C)nc3C)cc12 (stereo not drawn),-4.85%
8,O=S(=O)(c1ccc(C2CCCCC2)cc1)N1CCOCC1,-7.35%
9,COc1ccc(N2CCN(Cc3ccccc3C)CC2)cc1,4.57%
10,Cc1cc(C(=O)NCc2ccc(F)cc2)c2c(C)nn(-c3ccc(C)c(C)c3)c2n1,-2.83%
11,Cc1ccc(OCC(=O)Nc2ccc(CN3CCOCC3)cc2)cc1,0.189%
12,N#C/C(=C\c1cccc(F)c1)c1nc(-c2ccc([N+](=O)[O-])cc2)cs1,-4.11%
13,CC(NC(=O)c1ccccc1)c1ccc(Br)cc1 (stereo not drawn),-3.27%
14,COCCN1C(=O)/C(=C/c2ccc(F)cc2)S/C1=N\c1ccccc1,-8.08%
15,O=C1CC(c2ccccc2)=Nc2ncccc2N1,-3.24%
16,O=C(NC(Cc1c[nH]cn1)C(=O)O)c1ccccc1 (stereo not drawn),0.493%
17,CCOc1ccccc1/C=C(\C#N)c1nc(-c2ccc(Cl)c(Cl)c2)cs1,-0.771%
18,Nc1nnc(CCS(=O)(=O)c2ccc(Cl)cc2)s1,-0.424%
19,Cc1ccc(S(=O)(=O)N2CCN(C(=O)c3ccco3)CC2)cc1,-0.28%
20,COc1ccc2nc(SCCOC(=O)c3ccccc3)nc(C)c2c1,-3.96%
21,COc1cc(C2c3[nH]c4ccccc4c3CC3C(=O)N(C)C(=S)N32)cc(OC)c1O (stereo not drawn),-1.86%
22,Cn1nc(C(=O)N2CCN(Cc3ccc4c(c3)OCO4)CC2)c2c1-c1ccccc1OC2,-3.51%
23,CC(C)(C)OC(=O)N1CCCC1C(=O)NCCc1ccc(S(N)(=O)=O)cc1 (stereo not drawn),-1.22%
24,CCOC(=O)N1CCc2c(sc3c2c(=O)n(CCc2ccccc2)c(=O)n3CC(N)=O)C1,3.59%
25,CN(C)c1ccc(C(=S)N2CCCCC2)cc1,-1.05%

row,SMILES,% Inhibition @ 10 uM
1,OC12Oc3ccccc3C=C1N1CCC2CC1 (stereo not drawn),3.04%
2,Cc1cc(C)c2c(-n3cccc3)nn(CC(=O)N3CCCCCC3)c2n1,-3.52%
3,Nc1nc(C(Cl)(Cl)Cl)nc(-c2ccccc2)c1C(=O)c1ccccc1,3.25%
4,O=C1CCCN1CP(=O)(O)CN1CCOCC1,3.48%
5,CCC(Sc1ncccc1C(=O)O)C(=O)N1CCCC1 (stereo not drawn),-0.519%
6,O=C(NCCCO)C(=O)NCCc1ccccc1,-1.6%
7,CCOc1ccccc1NC(=O)CN(c1ccc(OC)cc1)S(C)(=O)=O,-5.67%
8,Cc1ccc(-c2cc(C(=O)Nc3cc(C)on3)c3ccccc3n2)cc1,-6.36%
9,COc1cc(OC)c(C2C(C#N)=C(N)Oc3cc(C)oc(=O)c32)cc1Br (stereo not drawn),4.66%
10,COc1cc(C(=O)NCc2cc(C)nc3ccccc23)cc(OC)c1OC,0.9%
11,COc1cccc(/C=c2\sc3nc(-c4cccc(Cl)c4)nn3c2=O)c1,2.24%
12,Cc1nnc(N2CCC(C(=O)N3CCC(C(N)=O)CC3)CC2)c2nn(-c3ccc(Cl)cc3)c(C)c12,7.24%
13,COc1ccc(-c2cc(OC(=O)c3ccccc3F)c3c(C)oc(C)c3c(=O)c2)cc1OC,3.81%
14,COC(=O)c1ccc(OCC(=O)Nc2ccsc2C(=O)OC)cc1,35%
15,COc1ccc(OC)c(NC(=O)CN(c2ccc(Cl)cc2)S(C)(=O)=O)c1,-1.43%
16,Cc1ccc2onc(CC(=O)NC3CCCCC3)c2c1,2.89%
17,CN1CCc2nc3sc(C(=O)C(C)(C)C)c(N)c3c(-c3cccs3)c2C1,3.05%
18,CCc1ccc(S(=O)(=O)c2nnn3c2nc(N(C)Cc2ccccc2)c2sccc23)cc1,-3.44%
19,CC1CCCC(NC(=O)c2cc3sc(Cl)cc3n2C)C1C (stereo not drawn),-6.91%
20,Cc1ccccc1-c1nnc(CN2CCC(C)CC2)o1,-0.0709%
21,O=C(NCc1ccccc1)c1cc([N+](=O)[O-])ccc1Cl,1.91%
22,COc1ccc(C(=O)Nc2sc(C)c(C)c2C(N)=O)c(OC)c1,-3.24%
23,O=C1CCSc2c1cccc2C(=O)NCCCN1CCOCC1,-0.205%
24,Cc1ccccc1C1CC(=O)Nc2c1c(C)nn2-c1nc2ccccc2s1 (stereo not drawn),5.39%
25,CCc1cccc(CC)c1NC(=O)C(C)NS(=O)(=O)c1ccc(Cl)cc1 (stereo not drawn),1.17%

row,SMILES,% Inhibition @ 10 uM
1,O=C(Nc1cnc2ccccc2c1O)N1CCC(Cc2ccccc2)CC1,5.43%
2,CC1=C(C(=O)N2CCCCC2)C(c2cc(Br)ccc2F)C2=C(O)CC(C)(C)CC2=N1 (stereo not drawn),-5.05%
3,Cc1cc(S(=O)(=O)c2cc3cc(F)cc(F)c3oc2=O)ccc1F,2.12%
4,O=C(c1ccc(Cl)s1)N1CCc2ccccc21,3.15%
5,CC(C)(C)c1ccccc1OCC(=O)NCCc1nc2ccccc2[nH]1,5.09%
6,O=C(CS(=O)(=O)c1ccc(Cl)cc1)c1cc2cc(Cl)ccc2oc1=O,-6.08%
7,O=C(c1cc(-c2ccccc2F)no1)N1CCOCC1,1.92%
8,COCc1cc(C)nc2sc(C(=O)c3ccccc3)c(NC(=O)c3ccccc3)c12,-6.58%
9,CC(NC(=O)C(c1ccccc1)c1ccccc1)C1COc2ccccc2O1 (stereo not drawn),-6.65%
10,c1ccc(CN2CCC(N3CCCCC3)CC2)cc1,1.88%
11,C=C(C)CC(Nc1ccccc1F)c1ccco1 (stereo not drawn),1.37%
12,CC1CCC(NCCN2CCCCC2)CC1 (stereo not drawn),-5.44%
13,COCCNC(=O)Cn1cnc2c(nc3n2CCCCC3)c1=O,-0.238%
14,CC(=O)c1nn(-c2ccccc2)cc1C(=O)c1cccc(Br)c1,4.81%
15,CC1=CC2=NC(=O)/C(=C/c3coc4ccccc4c3=O)C(=N)N2O1,1.15%
16,COc1ccc(CNC(=O)c2ccnn2C)cc1,-1.88%
17,COc1ccc(OC)c(C2CC(=O)N=C(NC(=O)c3cccc(F)c3)N2)c1 (stereo not drawn),-0.759%
18,Cc1ccc(/C=C2\C(=N)N3N=C(N4CCOCC4)SC3=NC2=O)o1,0.0579%
19,Cc1ccc(-n2c(Cc3cccn3C)nnc2SCC(=O)NCc2ccccc2)cc1,-2.19%
20,CCN(CC)C(=O)CN(c1ccc(Cl)c(Cl)c1)S(=O)(=O)c1ccccc1,-2.8%
21,COc1cccc(CN2CCN(c3cccc(C(F)(F)F)c3)CC2)c1,-3.65%
22,CCn1ncc(C2C(C#N)=C(N)Oc3[nH]nc(C)c32)c1C (stereo not drawn),-3.19%
23,CC1(c2ccc3noc(-c4ccc(Cl)cc4)c3c2)OCCO1,3.81%
24,O=S(=O)(c1ccc(Br)cc1)c1cccc(S(=O)(=O)N2CCCC2)c1,3.53%
